Sequences and labels used below:
B1: glmS ribozyme (parent)
chain: AUAAAAGCGCCAGAACUACAGAAAUGUAGUUGACGAGGAGGAGGUUUAUCGAAUUUUCGGCGGAUGCCUCCAAA

What all share (conditions): with glucosamine-6-phosphate
Series [1] covers variants of B1. Nature of the series: self-cleavage kobs at 40 uM GlcN6P; higher = faster cleavage; RNA array. The method in brief:
(§1)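 Barcoded glmS ribozyme variants on sequenced MiSeq chips were transcribed in situ by E. coli RNA polymerase and tracked through a hybridised Cy3 probe at 37 °C. Glucosamine-6-phosphate (40 μM to 10 mM) in HEPES/KCl/Mg(OAc)2 buffer was flowed in, and tiles were imaged over ~14 h. Signals were normalised to baseline and to non-cleaving reference variants; per-tile medians were fit to one- or two-exponential decays to give kobs. kcat and KM came from weighted Michaelis–Menten fits across concentrations.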

In series [2] the parent is B1. The series is described as follows: kcat; higher = faster cleavage; RNA array. A digest of the protocol: as §1
In series [3] the parent is B1. Nature of the series: self-cleavage kobs at 640 uM GlcN6P; higher = faster cleavage; RNA array. The method in brief: as §1
The variants in series [4] derive from B1. Nature of the series: self-cleavage kobs at 160 uM GlcN6P; higher = faster cleavage; RNA array. The method in brief: as §1
In series [5] the parent is B1. Nature of the series: self-cleavage kobs at 2500 uM GlcN6P; higher = faster cleavage; RNA array. The method in brief: as §1
Series [6] covers variants of B1. The series is described as follows: self-cleavage kobs at 10000 uM GlcN6P; higher = faster cleavage; RNA array. A digest of the protocol:
as §1

This note sets out measurements from the supplement of paper PMC7125110.

The term kcat denotes the maximal rate divided by the concentration of active sites.

± gives the standard error. Variants at the background level are over-represented here.

As to A6U A33G, the “self-cleavage kobs at 40 uM GlcN6P” value in the series with glucosamine-6-phosphate [1] was under 1e-05 s⁻¹.
On to G51A C68U, for which the kcat with glucosamine-6-phosphate [2] was under 1e-05 s⁻¹.
As to A6G G44U G62U G63A U69A, the “self-cleavage kobs at 40 uM GlcN6P” value with glucosamine-6-phosphate [1] was under 1e-05 s⁻¹. Further, in the series with glucosamine-6-phosphate [3], the “self-cleavage kobs at 640 uM GlcN6P” value is under 1e-05 s⁻¹. Also, in the series with glucosamine-6-phosphate [4], the “self-cleavage kobs at 160 uM GlcN6P” value was under 1e-05 s⁻¹. Besides, the “self-cleavage kobs at 2500 uM GlcN6P” value with glucosamine-6-phosphate [5] is under 1e-05 s⁻¹. For the same variant, in the series with glucosamine-6-phosphate [6], the “self-cleavage kobs at 10000 uM GlcN6P” value is under 1e-05 s⁻¹.
A36U U65A: the kcat with glucosamine-6-phosphate [2] is under 1e-05 s⁻¹. Moreover, the “self-cleavage kobs at 160 uM GlcN6P” value with glucosamine-6-phosphate [4] is under 1e-05 s⁻¹. For the same variant, the “self-cleavage kobs at 2500 uM GlcN6P” value with glucosamine-6-phosphate [5] is under 1e-05 s⁻¹.
For the variant G7C C10A G59A C68A, the “self-cleavage kobs at 40 uM GlcN6P” value with glucosamine-6-phosphate [1] is under 1e-05 s⁻¹. Besides, in the series with glucosamine-6-phosphate [6], the “self-cleavage kobs at 10000 uM GlcN6P” value was under 1e-05 s⁻¹.
Consider C34A C70A, for which the kcat in the series with glucosamine-6-phosphate [2] was under 1e-05 s⁻¹. The “self-cleavage kobs at 160 uM GlcN6P” value with glucosamine-6-phosphate [4] was under 1e-05 s⁻¹.
For the variant G7A G32A, the “self-cleavage kobs at 40 uM GlcN6P” value with glucosamine-6-phosphate [1] is under 1e-05 s⁻¹. Moreover, in the series with glucosamine-6-phosphate [3], the “self-cleavage kobs at 640 uM GlcN6P” value is under 1e-05 s⁻¹. Further, in the series with glucosamine-6-phosphate [5], the “self-cleavage kobs at 2500 uM GlcN6P” value was under 1e-05 s⁻¹.
For A6C U46A U49A, the “self-cleavage kobs at 40 uM GlcN6P” value with glucosamine-6-phosphate [1] is under 1e-05 s⁻¹. The “self-cleavage kobs at 160 uM GlcN6P” value with glucosamine-6-phosphate [4] was under 1e-05 s⁻¹.
As to A6U A15G U31G G41A, the “self-cleavage kobs at 40 uM GlcN6P” value in the series with glucosamine-6-phosphate [1] is under 1e-05 s⁻¹. The “self-cleavage kobs at 10000 uM GlcN6P” value in the series with glucosamine-6-phosphate [6] was under 1e-05 s⁻¹.
Consider A6G A12U G37C, for which the “self-cleavage kobs at 40 uM GlcN6P” value with glucosamine-6-phosphate [1] is under 1e-05 s⁻¹. Besides, the “self-cleavage kobs at 640 uM GlcN6P” value in the series with glucosamine-6-phosphate [3] was under 1e-05 s⁻¹. For the same variant, the “self-cleavage kobs at 160 uM GlcN6P” value with glucosamine-6-phosphate [4] was under 1e-05 s⁻¹. Further, the “self-cleavage kobs at 2500 uM GlcN6P” value with glucosamine-6-phosphate [5] is under 1e-05 s⁻¹. In addition, the “self-cleavage kobs at 10000 uM GlcN6P” value with glucosamine-6-phosphate [6] is under 1e-05 s⁻¹.
Take G7A A39U U56C G59A: the “self-cleavage kobs at 40 uM GlcN6P” value in the series with glucosamine-6-phosphate [1] is under 1e-05 s⁻¹. Besides, the “self-cleavage kobs at 10000 uM GlcN6P” value in the series with glucosamine-6-phosphate [6] is under 1e-05 s⁻¹.
With A6U C10U A15G G35A, in the series with glucosamine-6-phosphate [1], the “self-cleavage kobs at 40 uM GlcN6P” value is under 1e-05 s⁻¹. Also, the “self-cleavage kobs at 10000 uM GlcN6P” value with glucosamine-6-phosphate [6] is under 1e-05 s⁻¹.
Take A6G U31C U55G: the “self-cleavage kobs at 40 uM GlcN6P” value with glucosamine-6-phosphate [1] was under 1e-05 s⁻¹. Moreover, the “self-cleavage kobs at 2500 uM GlcN6P” value in the series with glucosamine-6-phosphate [5] amounted to 4.23e-05 ± 1.7e-05 s⁻¹. Besides, the “self-cleavage kobs at 10000 uM GlcN6P” value in the series with glucosamine-6-phosphate [6] amounted to 5.16e-05 ± 1.9e-05 s⁻¹.
As to C16G G38U, in the series with glucosamine-6-phosphate [2], the kcat was under 1e-05 s⁻¹. The “self-cleavage kobs at 640 uM GlcN6P” value in the series with glucosamine-6-phosphate [3] was under 1e-05 s⁻¹.
Take G40C U57G: the kcat with glucosamine-6-phosphate [2] is under 1e-05 s⁻¹. In addition, the “self-cleavage kobs at 40 uM GlcN6P” value with glucosamine-6-phosphate [1] is under 1e-05 s⁻¹. For the same variant, the “self-cleavage kobs at 640 uM GlcN6P” value in the series with glucosamine-6-phosphate [3] is under 1e-05 s⁻¹. Moreover, the “self-cleavage kobs at 160 uM GlcN6P” value with glucosamine-6-phosphate [4] is under 1e-05 s⁻¹.
Take G37C U65G: in the series with glucosamine-6-phosphate [2], the kcat was under 1e-05 s⁻¹. For the same variant, the “self-cleavage kobs at 40 uM GlcN6P” value in the series with glucosamine-6-phosphate [1] is under 1e-05 s⁻¹. Moreover, in the series with glucosamine-6-phosphate [4], the “self-cleavage kobs at 160 uM GlcN6P” value is under 1e-05 s⁻¹.
For A33G G43U, the kcat with glucosamine-6-phosphate [2] was under 1e-05 s⁻¹. Besides, the “self-cleavage kobs at 160 uM GlcN6P” value with glucosamine-6-phosphate [4] is under 1e-05 s⁻¹. The “self-cleavage kobs at 10000 uM GlcN6P” value with glucosamine-6-phosphate [6] was under 1e-05 s⁻¹.
On to A6G A64U, for which the “self-cleavage kobs at 40 uM GlcN6P” value in the series with glucosamine-6-phosphate [1] was under 1e-05 s⁻¹. The “self-cleavage kobs at 640 uM GlcN6P” value in the series with glucosamine-6-phosphate [3] is under 1e-05 s⁻¹. Besides, the “self-cleavage kobs at 160 uM GlcN6P” value in the series with glucosamine-6-phosphate [4] was under 1e-05 s⁻¹. The “self-cleavage kobs at 10000 uM GlcN6P” value with glucosamine-6-phosphate [6] was under 1e-05 s⁻¹.
For G63U C70U, the kcat with glucosamine-6-phosphate [2] is under 1e-05 s⁻¹. In addition, the “self-cleavage kobs at 40 uM GlcN6P” value with glucosamine-6-phosphate [1] is under 1e-05 s⁻¹.
Take A6C U31A: in the series with glucosamine-6-phosphate [1], the “self-cleavage kobs at 40 uM GlcN6P” value was under 1e-05 s⁻¹. For the same variant, the “self-cleavage kobs at 640 uM GlcN6P” value in the series with glucosamine-6-phosphate [3] was under 1e-05 s⁻¹. Further, in the series with glucosamine-6-phosphate [6], the “self-cleavage kobs at 10000 uM GlcN6P” value was found to be 3.99e-05 ± 1.3e-05 s⁻¹.
With A6C G29U G32A U45A G60A, the “self-cleavage kobs at 40 uM GlcN6P” value with glucosamine-6-phosphate [1] was under 1e-05 s⁻¹.
Regarding A6C G32A C68A, the “self-cleavage kobs at 40 uM GlcN6P” value with glucosamine-6-phosphate [1] is under 1e-05 s⁻¹. In the series with glucosamine-6-phosphate [3], the “self-cleavage kobs at 640 uM GlcN6P” value is under 1e-05 s⁻¹.
Consider A6G A14G A53C, for which the “self-cleavage kobs at 40 uM GlcN6P” value with glucosamine-6-phosphate [1] was under 1e-05 s⁻¹.
C50A U55C: the kcat with glucosamine-6-phosphate [2] was under 1e-05 s⁻¹.
With A6C G38U A64G, the “self-cleavage kobs at 40 uM GlcN6P” value in the series with glucosamine-6-phosphate [1] was under 1e-05 s⁻¹.
Regarding A33C C61G, in the series with glucosamine-6-phosphate [2], the kcat is under 1e-05 s⁻¹.
